{
  "source": "PubChem BioAssay AID485344",
  "about": "(National Center for Advancing Translational Sciences (NCATS), 2010)",
  "note": "Out of some 340,000 compounds screened, about 6,900 (2%) were called active. No stated cut-off is given here; in the data, active means inhibition above about 30%; inactive means below that, where a call was filed. The entries are a selection whose mix differs from that of the whole data set. The source gives no active or inactive call for entries shown without one.",
  "data": [
    {"target": "D(2) dopamine receptor (Homo sapiens) (UniProt P14416)", "sequence (P14416 whole entry, looked up)": "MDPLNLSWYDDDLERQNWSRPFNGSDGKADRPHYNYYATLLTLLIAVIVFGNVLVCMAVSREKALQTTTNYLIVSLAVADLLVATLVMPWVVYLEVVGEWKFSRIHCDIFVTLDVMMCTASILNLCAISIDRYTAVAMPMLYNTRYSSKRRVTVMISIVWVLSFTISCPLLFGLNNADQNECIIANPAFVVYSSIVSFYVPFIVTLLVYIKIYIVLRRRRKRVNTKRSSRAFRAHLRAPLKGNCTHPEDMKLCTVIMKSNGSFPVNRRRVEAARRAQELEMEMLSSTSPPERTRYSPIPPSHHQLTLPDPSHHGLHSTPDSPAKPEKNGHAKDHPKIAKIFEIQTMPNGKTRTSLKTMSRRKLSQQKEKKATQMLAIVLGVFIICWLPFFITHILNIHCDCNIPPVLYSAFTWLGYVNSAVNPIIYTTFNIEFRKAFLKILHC", "experiment": "HTS Assay for Allosteric Antagonists of the Human D2 Dopamine Receptor: Primary Screen for Antagonists; further: 0% is about no effect", "conditions": "HEK293 TREx D2 cells, calcium flux, dopamine EC80; at 10 µM; stronger effect = higher value", "outline": "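Tetracycline-induced HEK293 T-REx cells expressing D2 force-coupled to calcium signalling were dye-loaded, exposed to compound for 180 s, then challenged with an EC80 of dopamine; calcium flux was followed kinetically for a further 180 s.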", "values": [
      {"smiles": "CCCSc1ncc(Cl)c(C(=O)Nc2ccc(S(=O)(=O)N3CCCC(C)C3)cc2)n1", "note": "(stereo unspecified)", "inhibition": "-5.79%"},
      {"smiles": "O=C(Nc1nc2c(F)cccc2s1)c1ccc(S(=O)(=O)N2CCOCC2)cc1", "inhibition": "-3.97%"},
      {"smiles": "CCc1nnc(SCc2nc(-c3ccccc3Cl)oc2C)c2cc3sc(C)cc3n12", "inhibition": "7.11%"},
      {"smiles": "COc1ccc2[nH]cc(CCNC(=O)Nc3ccccc3)c2c1", "inhibition": "0.927%"},
      {"smiles": "COc1ccc(CN(C(=O)c2ccccc2F)C2CCS(=O)(=O)C2)cc1", "note": "(stereo unspecified)", "inhibition": "-11.6%"},
      {"smiles": "Cc1ccc(NC(=O)CN2C(=O)c3cccnc3Sc3ccccc32)cc1C", "inhibition": "-11.1%"},
      {"smiles": "Cc1nc2sc(C)c(C)n2c(=O)c1S(=O)(=O)N1CCN(c2ccccc2F)CC1", "inhibition": "-14%"},
      {"smiles": "Cc1ccc2c(Sc3ccc(Cl)cc3)c(C(=O)NCCC(C)C)[nH]c2c1", "inhibition": "25.3%"},
      {"smiles": "Cc1c(C(=O)N(Cc2ccc(N(C)C)cc2)CC2CCCO2)oc2ccccc12", "note": "(stereo unspecified)", "inhibition": "12%"},
      {"smiles": "Cc1cccc(N2CCN(C(=O)c3ccc4nc(N5CCC(C)CC5)sc4c3)CC2)c1C", "inhibition": "13%"},
      {"smiles": "Cc1cccc(C)c1NC(=O)Cn1c(=O)n(Cc2ccc(C(=O)NCc3ccco3)cc2)c(=O)c2sccc21", "inhibition": "-1.47%"},
      {"smiles": "CCOC(=O)Cc1cc(C(=O)Nc2ccc(Br)cc2)sc1-c1ccc(C)cc1", "inhibition": "11.2%"},
      {"smiles": "COc1cccc(N2CC(NC(=O)c3ccc4ccccc4c3)CC2=O)c1", "note": "(stereo unspecified)", "inhibition": "active: 34.4%"},
      {"smiles": "Cc1ccn2c(NC(=O)c3cccc(Cl)c3)c(-c3ccccc3)nc2c1", "inhibition": "5.51%"},
      {"smiles": "CCCC(=O)N1CCc2cc(OC)c(OC)cc2C1COc1ccccc1OC", "note": "(stereo unspecified)", "inhibition": "11.4%"},
      {"smiles": "CCc1ccc(CNc2ncc(-c3cccc(OC)c3)n2C)cc1", "inhibition": "-9.18%"},
      {"smiles": "CCOC(=O)c1c(C)[nH]c(C)c1S(=O)(=O)N1CCCC(C(=O)Nc2ncccc2C)C1", "note": "(stereo unspecified)", "inhibition": "9.22%"},
      {"smiles": "CCS(=O)(=O)N1CC(=O)N(c2cccc(Cl)c2)C(C)(C(=O)NC2CCCCCC2)C1", "note": "(stereo unspecified)", "inhibition": "-0.252%"},
      {"smiles": "CC(C)CCn1c(=O)c2cccnc2n(CC(=O)Nc2ccccc2)c1=O", "inhibition": "-2.47%"},
      {"smiles": "Cc1oc(-c2ccc(C(=O)NCCC(C)C)cc2)nc1CS(=O)(=O)c1ccccc1", "inhibition": "16.7%"},
      {"smiles": "COC(=O)c1sccc1S(=O)(=O)N(CC(=O)NCc1ccc(C)cc1)c1ccccc1", "inhibition": "-1.3%"},
      {"smiles": "N#Cc1c[nH]n2c(NC3CCCC3)c(-c3cccc(Br)c3)nc12", "inhibition": "9.17%"},
      {"smiles": "CC1CCN(S(=O)(=O)c2ccc3c(c2)CCN3C(=O)Nc2cccc(Br)c2)CC1", "inhibition": "-7.05%"},
      {"smiles": "Cc1ccc(-c2nc3n(n2)C(c2ccccc2Cl)C=C(c2ccc(Cl)cc2)N3)cc1", "note": "(stereo unspecified)", "inhibition": "18.9%"},
      {"smiles": "CCOC(=O)c1ccc(CN(Cc2ccc(C)cc2)S(=O)(=O)c2ccc(F)c(C(=O)Nc3ccc(C)c(F)c3)c2)cc1", "inhibition": "-2.24%"},
      {"smiles": "CCOCCc1nn2c(=O)cc(COC(=O)c3ccccc3NC(=O)c3ccccc3F)nc2s1", "inhibition": "7.08%"}
    ]}
  ]
}
